Counter-ions that a name gives are not always drawn. This is one part of the list. Most values come without repeats; read them as rough.
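Further: primary screen of an FDA-approved drug library in HeLa reporter cells in 96-well format, CellMask signal normalized to DMSO-treated wells set as 1, under 0.5 deemed highly cytotoxic.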

This assay concerns HeLa VPS33A reporter cells. In words: relative cell viability (CellMask signal) vs DMSO (fraction of DMSO); HeLa model of a glycosaminoglycan (GAG) storage disease; KI is knock-in and KO knock-out; SDC1 is syndecan 1; higher = less cytotoxic. Particulars: 50 µM; 24 h.
`CCCC(C(=O)OCCN(CC)CC)(c1ccccc1)c1ccccc1` [SKF 525A (hydrochloride)] registered a relative cell viability of 0.00366.
The result for `CCS(=O)(=O)N1CC(CC#N)(n2cc(-c3ncnc4[nH]ccc34)cn2)C1` reads 0.267.
The result for `O=C(c1ccc(F)c(F)c1Nc1ccc(I)cc1F)N1CC(O)([C@@H]2CCCCN2)C1` [Cobimetinib] reads 0.00693.
The result for `CCCCc1nc2cc(/C=C/C(=O)NO)ccc2n1CCN(CC)CC` [Pracinostat (SB939)] reads 0.381; that for `CC(C)C[C@H](NC(=O)[C@H](CCc1ccccc1)NC(=O)CN1CCOCC1)C(=O)N[C@@H](Cc1ccccc1)C(=O)N[C@@H](CC(C)C)C(=O)[C@@]1(C)CO1` [Carfilzomib (PR-171)], 0.0182; that for `CC/C=C\C/C=C\C/C=C\C/C=C\C/C=C\C/C=C\CCC(=O)O` [Docosahexaenoic Acid], 0.325.
On to `CNCCC(Oc1ccc(C(F)(F)F)cc1)c1ccccc1` (configuration not stated) [Fluoxetine HCl], for which the relative cell viability was 0.00363.
The same measure for `CC(C)Nc1cc(-c2c[nH]c(C(=O)N[C@H](CO)c3cccc(Cl)c3)c2)c(Cl)cn1`: 0.00659.
The molecule `CNC(=O)c1cc(Oc2ccc(NC(=O)Nc3ccc(Cl)c(C(F)(F)F)c3)cc2)ccn1` [Sorafenib] showed a relative cell viability of 0.0067.
The result for `CCCCc1oc2ccc(NS(C)(=O)=O)cc2c1C(=O)c1ccc(OCCCN(CCCC)CCCC)cc1` [Dronedarone] reads 0.00463.
On to `CC(C)N1CCN(c2ccc(OCC3COC(Cn4cncn4)(c4ccc(Cl)cc4Cl)O3)cc2)CC1` (configuration not stated) [Terconazole], for which the relative cell viability was 0.00898.
The result for `COc1cc(Nc2c(C#N)cnc3cc(OCCCN4CCN(C)CC4)c(OC)cc23)c(Cl)cc1Cl` [Bosutinib (SKI-606)] reads 0.00454.

Values taken from the supplement of paper PMC12355420.
